Some of the results follow.

The source of these data is the supplement of paper PMC11417369.

The assay relates to PfAP2-HC AP2 domain (GST-tagged). Nature of the assay: gcPBM binding intensity (ln(normalized median fluorescence intensity)); higher = stronger DNA binding. A digest of the protocol: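 Binding intensity is defined as the maximum Masliner-normalised natural-log median intensity across replicate spots for either probe orientation. It was measured on an Agilent 4 × 180k array of primer-extended double-stranded 36-bp intergenic genomic probes and negative controls, to which GST-tagged P. falciparum DNA-binding domains made in E. coli were applied for 1 h in 1× PBS with 1% milk, 0.2 mg/ml BSA, 0.5% salmon testes DNA and 0.03% Triton X-100. Detection was by Alexa488 anti-GST antibody and scanning at 488 nm.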
With “ACCTTATTTATTATTGCATGTGACCATCAGATGGTA [TGCATGCA_site288]”, the “gcPBM binding intensity (ln)” value was 9.62.

In the case of “AAAGAAAAAAAATAATGTACTTATGTATTTCAGAAA [XGTACX_site3570]”, the “gcPBM binding intensity (ln)” value amounted to 9.67.

As to “TTCATACATAGAAAATGTACATATATATATATATAT [XGTACX_site1895]”, the “gcPBM binding intensity (ln)” value was 9.71. As for “ATATATATGCATAATACACACATCATATAATTAACC [CACACA_site1643]”, the “gcPBM binding intensity (ln)” value came out at 10.2. As to “TACAAAATATTTTACACACACATATAAATACAGATA [CACACA_site5447]”, the “gcPBM binding intensity (ln)” value was determined as 10.6. With “AAGATATGTACTAATACACACACATATATATATATA [CACACA_site8249]”, the “gcPBM binding intensity (ln)” value came out at 9.9.

Consider “AAAAAAAAAAACAATACATGCATAATATTAATAAAA [TGCATGCA_site913]”, for which the “gcPBM binding intensity (ln)” value is 9.65.

As for “TATCCATGCATTTACACACACACAAAAAAAAATTCT [CACACA_site4100]”, the “gcPBM binding intensity (ln)” value was 10.6. Regarding “ATTTTTTTTTTTAATACACACAATTTTGATGAAGCA [CACACA_site3157]”, the “gcPBM binding intensity (ln)” value is 9.56.

For “TTTCATAAGAGAAAGACACACAAATATATATTTATT [CACACA_site827]”, the “gcPBM binding intensity (ln)” value worked out at 9.53. In the case of “TATAATATTTGGTGCACACAAATTAACAACTGTTTA [CACACA_site3742]”, the “gcPBM binding intensity (ln)” value worked out at 9.75.

Take “ACATTACCATATAAAACACACAAACATACATACATA [CACACA_site7709]”: the “gcPBM binding intensity (ln)” value was found to be 10.1. Consider “AATGCTATCATTAATGCACACATTTAAAATTAATAT [CACACA_site3548]”, for which the “gcPBM binding intensity (ln)” value amounted to 9.67. With “TTTAAAACCTTACATACACACAAATATATATATATA [CACACA_site677]”, the “gcPBM binding intensity (ln)” value was 10. The figure for “ATAATAAAAAATACAAGTACACATATTATATATATA [XGTACX_site5355]” is 9.93. Regarding “CAAACAATTAAACAAACACACATATACAAGTATTTA [CACACA_site5177]”, the “gcPBM binding intensity (ln)” value was determined as 9.93. With “TTTAAGTTTTTACTTTGTACGTATTATAATAAAATC [XGTACX_site5683]”, the “gcPBM binding intensity (ln)” value turned out to be 9.58. As to “TATATTTACTTATGAAGTACATATATATATATATAT [XGTACX_site5069]”, the “gcPBM binding intensity (ln)” value is 9.67. Consider “TGTTCTTTTTATACTACACACTGATAAAAAAACAAA [CACACA_site3001]”, for which the “gcPBM binding intensity (ln)” value was 9.46. For “GCTTGAATAATCAATAGTACACACATATAAATATAT [XGTACX_site5964]”, the “gcPBM binding intensity (ln)” value turned out to be 9.8. Turning to “TTTATTTTCATATGAACACACATATTTATATTATAA [CACACA_site7165]”, the “gcPBM binding intensity (ln)” value was determined as 10.2. The result for “ATACATACATATATATGTACTTATATTTTACACATT [XGTACX_site1688]” reads 10.3; that for “TACAATCTAAGGAGCACACAAAAATGGATAAATATA [CACACA_site933]”, 9.78; that for “TAATAAAAGAAAAAAAGTACAGACATATTGAATTTT [XGTACX_site5044]”, 9.78. For the sequence “TTTTTTTTTTTTTTTTGTACTCATACATACTATCAT [XGTACX_site3650]”, the “gcPBM binding intensity (ln)” value was 9.29.
